According to the supplement of paper PMC3334620:
The full ranking holds about 33,000 sequences; the median of “E-score (-0.5 to 0.5)” is about -0.036, and the highest 2% start at about 0.37. This is one part of the list.

biological target: T1, Yer064c (UniProt P40041); assay: PBM E-score (8-mer binding enrichment) (E-score (-0.5 to 0.5)); higher = stronger / more preferred TF binding; most listed sequences are background and not binding sites; conditions: protein concentration: 200 nM; construct: GST-full length
T1 sequence: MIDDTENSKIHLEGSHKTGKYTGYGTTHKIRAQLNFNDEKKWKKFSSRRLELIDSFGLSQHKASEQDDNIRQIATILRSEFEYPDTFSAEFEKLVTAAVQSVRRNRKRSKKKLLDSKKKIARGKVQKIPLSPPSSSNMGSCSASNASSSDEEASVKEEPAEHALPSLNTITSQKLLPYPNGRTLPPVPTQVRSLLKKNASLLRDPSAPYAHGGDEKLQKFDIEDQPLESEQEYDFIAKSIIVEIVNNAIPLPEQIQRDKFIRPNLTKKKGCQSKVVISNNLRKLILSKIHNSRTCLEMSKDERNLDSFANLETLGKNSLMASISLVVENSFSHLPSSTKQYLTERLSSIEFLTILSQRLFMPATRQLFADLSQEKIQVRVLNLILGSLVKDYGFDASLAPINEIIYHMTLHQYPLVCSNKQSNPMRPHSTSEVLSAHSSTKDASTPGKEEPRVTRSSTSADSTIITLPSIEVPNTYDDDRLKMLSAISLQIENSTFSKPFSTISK
How it was run: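 Universal all-10-mer Agilent arrays, fresh or stripped once, were converted to double-stranded form by primer extension. GST-tagged yeast transcription factors from PURExpress in vitro transcription/translation, full-length or DNA-binding domain only, were applied at about 100-200 nM and detected with fluorescent anti-GST. After masliner normalisation, the Universal PBM Analysis Suite scored each ungapped eight-base word together with its reverse complement by E-score.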

| Sequence | PBM E-score |
| --- | --- |
| ACAGACAG | 0.0442 |
| ACCAGTGG | -0.149 |
| ACTGTCGA | 0.0992 |
| GACGTCGA | -0.14 |
| GGCCTAAA | -0.164 |
| CCGATCTA | -0.021 |
| ACAGTGGT | -0.0809 |
| GGCGGGGA | -0.0153 |
| AACAGTGT | 0.035 |
| AGCCACAT | 0.156 |
| CGCGACAA | 0.124 |
| CCCATTTA | 0.0983 |
| CGACGATC | 0.086 |
| CACAAGCC | 0.0086 |
| ACGTCACT | -0.0404 |
| AGCATAGA | -0.214 |
| ATGCCCGA | -0.179 |
| CTCACTTC | -0.0699 |
| GATTTGGC | -0.0986 |
| CCTCTCGC | -0.149 |
| ATCGCAAT | 0.0912 |
| TAATATTA | 0.207 |
| CGGCGCAA | -0.235 |
| CCACATAA | -0.0479 |
| GCGCGAGA | -0.151 |

| Sequence | PBM E-score |
| --- | --- |
| CTTCTTTC | -0.0478 |
| TAGACCTA | -0.0284 |
| CGTCAAGA | -0.229 |
| CTCGGATA | 0.0525 |
| GCTTAAGC | -0.103 |
| CGTAAACC | -0.201 |
| ATGGGGTC | -0.192 |
| TGAGGTAA | -0.0357 |
| AAAGGAGG | -0.302 |
| CAATAATC | 0.276 |
| CGAGGGCC | -0.17 |
| ATGATCAT | 0.333 |
| ACGAACGT | -0.129 |
| CATAGACG | 0.132 |
| GATACACC | 0.0657 |
| AGGCCGGA | -0.0337 |
| GAAGTCTC | 0.145 |
| CGGAAACA | -0.254 |
| CATGTTAA | 0.124 |
| GAGGAATA | -0.0447 |
| ATCCCGAG | -0.011 |
| ATTAGGCC | 0.00222 |
| AATCATCG | 0.439 |
| GGGCGACA | -0.187 |
| GCCGCGAC | -0.00571 |

| Sequence | PBM E-score |
| --- | --- |
| TAGAATGA | 0.186 |
| ACTTTTTG | 0.0874 |
| GTACTACA | 0.17 |
| ACCAGTCC | -0.0297 |
| AGCTACTA | -0.207 |
| CACTTGAC | 0.146 |
| GACTTATC | 0.307 |
| AAGAGCCG | -0.199 |
| GGGCACGA | -0.21 |
| CGGTCCAC | -0.28 |
| GCCCCGGC | -0.208 |
| AGAGACGC | -0.212 |
| CGGTTGAA | 0.109 |
| GCTATGCA | -0.22 |
| AGTGGAGG | -0.15 |
| ATCGGAGG | 0.026 |
| ACATGCGG | -0.161 |
| ATTCTCAC | 0.0881 |
| ACGCCGTG | -0.125 |
| ACTGTAAT | 0.0302 |
| GTACAGGA | -0.0544 |
| ATCTACTC | 0.123 |
| CTAGAGCA | 0.0338 |
| AGATATGG | -0.0104 |
| CCCTGAAA | -0.0824 |

| Sequence | PBM E-score |
| --- | --- |
| CCTGTAAA | -0.0234 |
| AAAGCCAA | -0.119 |
| ACTTTTAA | 0.171 |
| CCACGAGC | -0.0744 |
| AGTTTCCC | 0.0328 |
| CGCGAAGA | 0.0335 |
| GATCGGGC | -0.237 |
| ACCGCGCT | -0.135 |
| ACTGCGGA | -0.0234 |
| ACTCAGCT | 0.216 |
| ATCTGCAA | 0.0565 |
| CCGACTGC | 0.156 |
| AGGAACGA | -0.107 |
| ACTCTCGC | 0.248 |
| CAGACTTC | -0.103 |
| AGGAGGTA | -0.096 |
| AGCACGCC | -0.239 |
| GCAGACAA | -0.185 |
| ATTTTAGA | 0.031 |
| GGTCCAAA | -0.164 |
| AGACCCAC | -0.106 |
| ATGGGTTA | 0.142 |
| GGCCCGAA | -0.26 |
| AGAGAGAT | -0.088 |
| CCGCTTCA | -0.212 |

| Sequence | PBM E-score |
| --- | --- |
| ATGTACAT | -0.101 |
| CGTACCAG | -0.221 |
| AGCCGTCA | -0.103 |
| TTGGACAA | -0.0291 |
| AACCATGG | 0.218 |
| AGCCACGG | -0.0328 |
| AGATCGTA | -0.159 |
| ATGGTAAT | 0.168 |
| CAGTGCAG | -0.207 |
| ACGCACGC | -0.102 |
| CGTAGCCA | 0.0918 |
| CTAGGTGA | 0.0962 |
| GCGCTTGA | -0.0067 |
| AAACCTGA | 0.132 |
| ACTGAAGG | 0.112 |
| ATATTACA | 0.117 |
| GACATCCC | -0.215 |
| AGTCTAGC | -0.00976 |
| AATATAAA | 0.0817 |
| GAATCGTC | 0.262 |
| GGCAGAAC | -0.0893 |
| CTTGGTAA | 0.0918 |
| CGGTTGGC | -0.0379 |
| ATTCGAGG | -0.00719 |
| CTCAACAA | 0.0927 |

| Sequence | PBM E-score |
| --- | --- |
| ATCTTTGG | -0.133 |
| GATCCTAA | -0.0928 |
| CCAGAGGG | -0.166 |
| ACAACTAC | -0.0413 |
| GTAGTAAA | 0.107 |
| CTATCAAG | 0.0982 |
| GGGGCCTA | -0.409 |
| GTCTTCAC | 0.158 |
| ACATAATG | 0.106 |
| ATAATTAC | 0.0781 |
| ACGATAAT | 0.17 |
| GTCTTCCA | 0.139 |
| GCACGTAA | -0.151 |
| ATCCGCAG | 0.0253 |
| CGCTATAG | -0.142 |
| GTTAGGTA | -0.077 |
| ATATCGTA | -0.0392 |
| AAGGACAG | -0.184 |
| CTGCGAAC | -0.0837 |
| AATGGAGG | -0.358 |
| AGATATAC | -0.111 |
| ATAGAGCC | -0.139 |
| ACAGGAGG | -0.134 |
| GCGACGGA | -0.198 |
| GGCAGGTA | -0.236 |

| Sequence | PBM E-score |
| --- | --- |
| CCAAGGTA | 0.0879 |
| AAAGACTC | 0.409 |
| CCATGCCG | -0.072 |
| ATATTAGA | 0.0834 |
| GTGTTAAA | 0.0157 |
| AAAGGAGA | -0.0434 |
| AAGGATAA | -0.0766 |
| ACCGGCTA | -0.246 |
| GCTTGACC | -0.115 |
| GGAAGCGA | -0.112 |
| ATGTCCGG | -0.304 |
| AGAAACGC | -0.112 |
| CGTCGTCA | -0.142 |
| TCGAACCA | 0.0632 |
| ACCGATTC | 0.034 |
| GCTCGTAC | -0.067 |
| GGCGGTTA | 0.0695 |
| GCAAGAGA | -0.0253 |
| AGTCAGGC | 0.449 |
| GAATCATC | 0.48 |
| CATCTGAA | 0.183 |
| CGAAACTC | -0.142 |
